The source of these data is PubChem BioAssay AID488969 (Vanderbilt High Throughput Screening Facility, 2010).

Over roughly 110,000 compounds, “z-score” has its median near -0.1; the highest 2% begin near 2. The list shows a part of the results. Active and inactive are the calls of the source.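 The calls were made as follows: active = z-score in the third read window above 3 or below -3; inactive = the rest.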

For this assay, the target named is Metabotropic glutamate receptor 8 (Rattus norvegicus) (UniProt P70579). The experiment in a line: rat mGluR8 modulators via GIRK flux, primary screen, cell-based, thallium flux, HTS (AID 488969). The settings on record: HEK293 rat mGluR8, GIRK (G protein-gated inwardly rectifying potassium channel) thallium flux, FluoZin2; at 10 µM; stronger effect = higher value; submaximal glutamate (EC20) added with thallium.
UniProt P70579, sequence (P70579 whole entry, looked up): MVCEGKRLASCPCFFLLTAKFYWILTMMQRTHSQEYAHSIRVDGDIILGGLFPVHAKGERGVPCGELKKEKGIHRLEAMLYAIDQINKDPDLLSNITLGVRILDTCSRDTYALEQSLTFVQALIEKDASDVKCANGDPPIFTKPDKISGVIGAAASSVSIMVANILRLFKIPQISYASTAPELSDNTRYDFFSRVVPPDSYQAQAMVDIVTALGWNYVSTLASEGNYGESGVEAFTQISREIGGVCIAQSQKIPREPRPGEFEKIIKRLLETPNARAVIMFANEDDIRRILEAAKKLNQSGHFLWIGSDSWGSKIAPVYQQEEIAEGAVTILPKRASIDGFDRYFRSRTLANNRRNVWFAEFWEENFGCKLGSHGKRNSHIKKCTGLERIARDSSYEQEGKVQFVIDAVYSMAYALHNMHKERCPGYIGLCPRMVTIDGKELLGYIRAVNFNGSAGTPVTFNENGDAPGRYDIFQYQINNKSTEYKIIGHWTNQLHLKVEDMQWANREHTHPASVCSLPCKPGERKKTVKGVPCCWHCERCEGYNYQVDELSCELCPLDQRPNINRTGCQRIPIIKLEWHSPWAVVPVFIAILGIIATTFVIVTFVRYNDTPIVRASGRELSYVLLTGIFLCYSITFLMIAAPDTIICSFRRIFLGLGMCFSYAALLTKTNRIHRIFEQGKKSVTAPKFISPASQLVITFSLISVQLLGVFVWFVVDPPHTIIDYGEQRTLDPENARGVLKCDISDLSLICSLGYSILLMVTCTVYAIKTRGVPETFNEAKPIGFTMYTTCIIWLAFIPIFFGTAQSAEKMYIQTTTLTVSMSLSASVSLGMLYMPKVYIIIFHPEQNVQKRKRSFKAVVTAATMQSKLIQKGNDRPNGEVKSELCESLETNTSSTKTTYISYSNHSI
`CCCOc1ccc(/C(O)=C2/C(=O)C(=O)N(CCCOC)C2c2ccncc2)cc1` (configuration not stated) displayed a z-score of 0.0869.
`COc1nnc(-c2ccc(N3CCCCC3)c(N)c2)c2ccccc12`: the z-score was -0.0963.
In the case of `COC(=O)c1sccc1OC(C)C(C)=O` (configuration not stated), the z-score is -0.0883.
The figure for `O=C(c1ccccc1NS(=O)(=O)c1cccs1)N1CCCC1` is 0.676.
Take `O=C(N/N=C/c1cccs1)c1ccccn1`: the z-score is -0.181.
For the molecule `CCCc1ccc(-c2cc(C(=O)N/N=C/c3ccc([N+](=O)[O-])o3)c3ccccc3n2)cc1`, the z-score is -0.0182.
As for `Cc1ccc(C(=O)NCc2ccc3c(c2)OCO3)cc1S(=O)(=O)N1CCOCC1`, the figure is -0.0929; as for `CC(=O)N(c1ccccc1)C1CCCC1`, -0.00135.
For the molecule `Cc1nc(SCC(=O)N(C)C2CCCCC2)[nH]c(=O)c1Cc1ccccc1`, the z-score was -2.29.
The figure for `Cc1c(Cl)cccc1N1C(=O)CC(N(O)c2ccccc2)C1=O` (configuration not stated) is -0.153; for `Cn1c(SCC(=O)NC2CCCCC2)nnc1-c1cc2ccccc2o1` it is -0.294; for `CCCc1cc(=O)n2[nH]c(-c3ccc(OC)cc3)nc2n1` it is -0.136.
With `O=C(COc1ccccc1F)c1ccc(O)cc1O`, the z-score amounted to 0.0502.
`Cc1cc(NC(=O)C(C)(C)C)no1`: the z-score was -0.078.
As for `CCn1nc(C)cc1Nc1ccccc1`, the figure is -0.0666; as for `CN1/C(=C/C=N/NC(=O)c2ccc([N+](=O)[O-])cc2)C(C)(C)c2ccccc21`, 0.228.
The figure for `O=C(C1CCC1)N1CCc2cc(S(=O)(=O)NCC3COc4ccccc4O3)ccc21` (configuration not stated) is 0.767; for `COc1ccccc1OCC(=O)Nc1sc2c(c1C(=O)NCC1CCCO1)CCC2` (configuration not stated) it is active: -4.18.
As for `CCSc1nc(-c2ccco2)ccc1C#N`, the figure is -0.085; as for `COc1cccc(C(=O)CN(C(=O)c2ccc(Cl)c(Cl)c2)N2C(=O)C3CCCCC3C2=O)c1` (configuration not stated), -0.109.
As to `CC(=O)Nc1ccc2c(c1)C(=O)N(c1ccc(C)cc1)C2=O`, the z-score was -0.0778.
As for `COc1ccc(S(=O)(=O)N2Cc3ccccc3CC2C(=O)Nc2nccs2)cc1OC` (configuration not stated), the figure is -0.212; as for `Cc1cc(C)cc(OCC(=O)NN2Cc3ccccc3C2=N)c1`, -0.183; as for `CC(C)C(=O)NNS(=O)(=O)c1ccccc1[N+](=O)[O-]`, 0.0767.
Turning to `O=C(Nc1ccc(F)cc1)c1sc2cc(C(F)(F)F)cnc2c1-c1cccs1`, the z-score is -0.442.
On to `CCC(=O)Nc1nnc(C(C)(C)C)s1`, for which the z-score was -0.429.
As for `COCCCn1c(SCC(=O)Nc2nc3ccccc3s2)nnc1-c1ccoc1C`, the z-score was found to be 0.611.
The figure for `FC(F)(F)c1cc(-c2ccccc2)nc(N2CCCCC2)n1` is 0.136; for `CCOc1ccc2nc(SCC(=O)c3ccccc3)sc2c1` it is 0.303; for `O=C(c1ccc(Cl)c(F)c1F)N1CCOCC1` it is -0.0943.
Regarding `Cc1ccc(SC(C)C(=O)Nc2ccc(S(=O)(=O)N3CCOCC3)cc2)cc1` (configuration not stated), the z-score is active: 6.05.
For the molecule `O=C(CCCCCN1C(=O)c2cccc3cccc(c23)C1=O)N1CCOCC1`, the z-score was -0.0211.
As for `O=C(/C=C/c1ccccc1)NC(=S)Nc1ccc(N2CCOCC2)cc1`, the figure is -0.296; as for `CCc1ccc(C(C(=O)NCCOC)N(C(=O)Cn2nnc3ccccc32)c2cccnc2)cc1` (configuration not stated), 0.0587.
For the molecule `CCCc1cc(-c2n[nH]c(=S)n2C(C)c2ccccc2)cs1` (configuration not stated), the z-score is active: 10.9.
As for `CC1(C)NC(=O)N(CN2C(=O)NC(C)(C)C2=O)C1=O`, the figure is -0.285; as for `CCc1nc2ccccc2n1CCC(=O)O`, -0.185; as for `Cc1cccnc1NC(=O)c1ccccc1NC(=O)C(C)(C)C`, 0.177.
The figure for `Cc1ccccc1-c1nnc(-c2ccccc2C)o1` is -0.381.
The figure for `COC(=O)CCCC[C@@H]1SC[C@@H](NC(=O)OC)[C@@H]1NC(=O)OC` is -0.0528; for `CC(C)CC1(C)NC(=O)N(CCN2C(=O)c3ccccc3C2=O)C1=O` (configuration not stated) it is 0.055; for `COC(=O)CN(n1cnnc1)S(=O)(=O)c1ccccc1Cl` it is -0.315.
Regarding `Cc1ccc(-c2[nH]c(-c3ccc(C(=O)O)cc3)nc2-c2ccccc2)cc1`, the z-score was -0.218.
The figure for `O=C(CNC(=O)/C(=C\c1ccc(Br)cc1)NC(=O)c1ccccc1)OCc1ccccc1` is -0.328; for `O=C(Nc1ccc2oc(-c3ccncc3)nc2c1)c1cccs1` it is -1.18.
For the molecule `COc1ccc(N(C(=O)C(C)C)S(=O)(=O)c2ccc(Cl)cc2)cc1`, the z-score is -0.275.
As for `Cc1ccc2c(c1)C1CCCC3C1N2CC(=O)N3Cc1ccccc1` (configuration not stated), the figure is -0.338; as for `Cc1ccc(NC(=O)c2ccc3c(c2)OCCO3)cc1`, 0.675.
The figure for `COc1cc(C2c3sc(=O)[nH]c3SC3C4CCC(C4)C23)ccc1O` (configuration not stated) is -1.7; for `CC(/C=N/n1c(-c2ccco2)n[nH]c1=S)=C\c1ccccc1` it is active: 5.91.
In the case of `CCOC(=O)N1CCN(CC(=O)Nc2ccc(C)cc2)CC1`, the z-score was -0.212.
As for `Cc1ccc(SCCNC(=S)Nc2cc(C)cc(C)c2)cc1`, the figure is -0.391; as for `COc1ccc(C2SCCN2C(=S)Nc2cccc(Cl)c2)cc1` (configuration not stated), 0.287.
As for `Cc1ccc(N2CCOCC2)c2c1C(=O)c1ccccc1C2=O`, the figure is -0.113.
For the molecule `CCCC(CCC(=O)Nc1ccc(C(=O)OCC)cc1)C(=O)O` (configuration not stated), the z-score was -0.53.
The figure for `COc1ccccc1N1CC(C(=O)Nc2nnc(SCc3ccccn3)s2)CC1=O` (configuration not stated) is 0.243.
Take `O=S(=O)(c1cnc(Cl)c(Cl)c1)N1CCCc2ccccc21`: the z-score was -0.611.
With `Cc1c(C=O)cnn1CCC(=O)O`, the z-score is -0.0719.
For `CCn1cc(Br)c(C(=O)Nc2ccc(OC)cc2)n1`, the z-score is -0.389.
As for `CN(C)CCCNC(=O)c1ccc(-c2nc(-c3ccc(Cl)cc3)cs2)cc1`, the figure is active: 3.28; as for `Cc1cc(C(=O)COC(=O)C2=NNC(=O)CC2)c(C)n1-c1ccc(OC(F)F)cc1`, 0.286.
The figure for `NC(=O)CSc1nc2ccccc2n1Cc1ccccc1` is -0.072; for `CNC(=O)CN(c1cc([N+](=O)[O-])ccc1OC)S(C)(=O)=O` it is -0.226; for `FC(F)(F)c1nc(N2CCCC2)ncc1-c1nnnn1-c1ccc(Cl)cc1` it is -0.207.
Turning to `O=C(CCN1C(=O)c2ccccc2C1=O)Nc1ccccc1C(=O)N1CCOCC1`, the z-score is -0.292.
In turn, `Cc1csc2ncc(C(=O)N3c4ccccc4CC3C)c(=O)n12` (configuration not stated) returned a z-score of 1.13.
The figure for `Cc1[nH]n(-c2ccc([N+](=O)[O-])cc2)c(=O)c1N=Nc1nc2ccccc2s1` is 2.47; for `Fc1cccc(COc2ccccc2CNc2ccccc2)c1` it is 0.0246; for `C/C(N)=C(/C#N)C(=O)CSc1nnc(Cc2ccccc2F)n1N` it is 0.932.
The figure for `COC(=O)c1[nH]c2cccc(OC)c2c1NC(=O)CCN1CC(C)CC(C)C1` (configuration not stated) is -0.111; for `c1ccc(-c2oc3ncnc(N4CCOCC4)c3c2-c2ccccc2)cc1` it is -0.455; for `O=C(c1nc2nc(-c3ccc(Cl)cc3)cc(C(F)(F)F)n2n1)N1CCOCC1` it is -0.484.
The figure for `CCOC(=O)N1CCN(C(=O)c2cc(-c3ccc(F)cc3)[nH]c2C)CC1` is -1.27; for `Cc1csc(SCc2nnc(-c3ccccc3Br)o2)n1` it is -0.633.
As to `Cc1ccc(/C=C(/NC(=O)c2ccccc2)C(=O)NCCc2c[nH]c3ccccc23)o1`, the z-score was -0.272.
The figure for `CCOC(=O)C1=C(c2ccccc2)NC(SCC)=C(C#N)C1c1cccnc1` (configuration not stated) is -0.583; for `COC(=O)c1cc(=O)nc2sc3ccccc3n12` it is 0.125; for `CCn1c(Cc2ccccc2)nnc1SCC(=O)Nc1ccc(C)cc1` it is -0.0912.
As for `NC(=O)[C@H](Cc1cc2ccccc2s1)NC(=O)[C@@H]1CC2(CC(c3cccc(NC(=O)[C@@H]4CCC(=O)N4)c3)=NO2)CN1C(=O)c1ccccc1` (some centres not stated), the figure is -0.0413; as for `Cc1cc(=O)oc2cc(OCC(=O)NCc3ccncc3)ccc12`, -0.0331.
As for `O=C(COc1ccccc1)N1CCN(C(=O)Cc2ccccc2)CC1`, the z-score is -0.784.
`CCCCn1c(=O)[nH]c(=O)c2c1nc(-c1ccc(-c3ccccc3Br)o1)n2CCOC` had a z-score of 0.145.
As for `Cc1ccccc1N1C(S)=C(C#N)C(=O)NC1c1cccs1` (configuration not stated), the figure is -0.56.
In the case of `Cc1cccc(OCC(=O)N/N=C/c2cc([N+](=O)[O-])ccc2N2CCOCC2)c1`, the z-score was -0.223.
The figure for `COc1ccc(S(=O)(=O)n2ccc(-c3cnc(-c4ccccc4)s3)n2)cc1` is -0.248; for `CCSC1=NC(C)(C)C=C(/C=C/c2ccc(Cl)cc2Cl)N1` it is 0.874; for `CCCCC(=O)NCCc1ccc(OC)cc1` it is -0.412.
As for `CCOc1cc(/C=N\NC(=O)c2ccc(C)nc2)cc([N+](=O)[O-])c1O`, the figure is -0.222; as for `COc1ccc(S(=O)(=O)NCCC(C)C)cc1C`, -0.152; as for `Cc1ccc(C)c(N2CN(Cc3ccco3)CNC2=S)c1`, 0.504.
The figure for `CCC(CC)NC(=O)c1cc2c(C)nn(Cc3ccccc3Cl)c2s1` is -0.23.
In turn, `CS(=O)(=O)N(CC(O)Cn1c2ccccc2c2ccccc21)c1cccc2ccccc12` (configuration not stated) came in with a z-score of 0.332.
The figure for `O=C(c1ccncc1)N1CCN(C(=O)c2ccncc2)CC1` is 0.319; for `O=[N+]([O-])c1ccc(-c2nc3ccc([N+](=O)[O-])cc3[nH]2)cc1` it is -0.201.
The molecule `COc1ccc(C(=O)CSc2ccc(-c3ccco3)nn2)cc1` registered a z-score of 0.654.
As for `N#C/C(=C\c1cn[nH]c1-c1ccc(Cl)cc1)C(=O)NC1CC1`, the figure is -0.545; as for `CC(CS(=O)(=O)c1ccc2ccccc2c1)N1CCN(C2CCCCC2)CC1` (configuration not stated), 0.912; as for `COC(=O)CSc1nnc(-c2ccc(OC)cc2OC)o1`, -0.797.
As for `Cc1noc(NC(=O)c2ccc(F)cc2)c1C#N`, the figure is -0.00458.
As for `CCc1c(C)nc(N)n2c(SCC(=O)Nc3ccccc3)nnc12`, the figure is -0.634; as for `CCCNC(=S)Nc1ccc2nc(-c3ccccn3)c(-c3ccccn3)nc2c1`, -0.0944.
Turning to `CC1CSc2nc3sc4c(c3c(=O)n21)CCCC4` (configuration not stated), the z-score is -0.765.
In turn, `CCOC(=O)c1c(N)sc(C(=O)N2CCCCC2)c1C` had a z-score of 0.00178.
The figure for `COC(=O)c1ccc(CN2CCN(Cc3ccc(C(=O)OC)o3)CC2)o1` is 0.543; for `c1ccc(N2CCCCC2)c(NC2=NCCC2)c1` it is -0.219; for `CC1CCC2(CC1)N=C(N)Nc1nc3ccccc3n12` (configuration not stated) it is 0.276.
On to `c1ccc(-c2nnc(CSc3nc4ccccc4[nH]3)o2)cc1`, for which the z-score was -0.393.
The figure for `COc1ccc(C(=O)Nc2cccc(N(C)S(C)(=O)=O)c2)cc1OC` is 0.00947; for `CCOC(=O)CSC1=C(C#N)C(c2ccccc2OCC)C(C(=O)OCC)C(=O)N1` (configuration not stated) it is -0.815; for `OCc1nc2ccccc2n1CC(O)COc1ccccc1` (configuration not stated) it is 0.379.
`CC1CCCN(C(=S)NCCc2ccccc2)C1` (configuration not stated) showed a z-score of 0.132.
The figure for `Cc1cc(C)cc(NS(=O)(=O)c2ccc3c(c2)c(=O)n(C)c(=O)n3C)c1` is -0.825.
